This note sets out measurements from publication PMC12040169 (PLOS Biology, 2025).

This is one part of the list.

In the experiment the test system is T1, C. trachomatis L2/434/Bu expressing GFP (CTL2-GFP).
T1 construct: L2/434/Bu GFP intracellular growth in HeLa cells
Also noted: species or system HeLa; C. trachomatis total inclusion area by high-content imaging, normalised to DMSO. To be noted: total inclusion area; 28.5 h, 10 µM; inhibitor. In outline: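 High-content images of fixed, Hoechst-stained infected cultures supply inclusion area and count (growth) plus nuclei number (viability), complementing bulk GFP/resorufin fluorescence. MIC determination is unchanged from the primary assay.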
For the compound `O=C(NCC(c1ccccc1)c1ccccc1)N1CCN(c2ccc(F)cc2)CC1` [CBK156415], the “% of control remaining” value was determined as 89.9484.

Consider `COc1ccc(N2C(=O)CC(Nc3ccc(Cc4nc5ccccc5[nH]4)cc3)C2=O)cc1` (stereo not shown) [CBK266480], for which the “% of control remaining” value is on record as 107.145.

Consider `CC1c2ccsc2CCN1C(=O)COc1cccc(Br)c1` (stereo not shown) [CBK305434], for which the “% of control remaining” value was 73.1901.

Turning to `CC(=O)Nc1ccc(CNC(=O)CN2CCCC(c3ncc[nH]3)C2)cc1` (stereo not shown) [CBK307718], the “% of control remaining” value is listed as 85.9676.

As to `CC1CCN(Cc2ccc(-c3nnn(CC(=O)NCc4ccc(C(F)(F)F)cn4)n3)cc2)CC1` [CBK149722T], the “% of control remaining” value was 90.7467.

For the compound `CN1CCN(/N=C/c2c(C(F)(F)F)[nH]n(-c3nc4ccccc4s3)c2=O)CC1` [CBK263163], the “% of control remaining” value was found to be 103.782.

For `COc1cccc2ncn(Cc3n[nH]c(C)n3)c(=O)c12` [CBK306938], the “% of control remaining” value amounted to 74.768.

On to `NC(=O)C1(Cc2cccc(-c3cccs3)c2)CCN(C(=O)COc2ccccc2)CC1` [CBK285741], for which the “% of control remaining” value came out at 84.3994.

Take `CC1(C)CC(=O)C2=C(C1)Nc1ccccc1N(C(=S)NCc1ccco1)C2c1cccnc1` (stereo not shown) [CBK267342]: the “% of control remaining” value is 137.434.

Consider `CCOCCCn1c(SCC(=O)NC(Cc2ccccc2)C(=O)O)nc2ccccc2c1=O` (stereo not shown) [CBK297132], for which the “% of control remaining” value was 91.918.

Take `COC(=O)c1ccccc1NC(=O)CSc1nnc(-c2ccccc2)[nH]1` [CBK266338]: the “% of control remaining” value is reported as 120.303.

For `COc1ccc(C(=O)C2=C(O)C(=O)N(CCN3CCNCC3)C2c2ccc(Cl)c(Cl)c2)cc1` (stereo not shown) [CBK264616], the “% of control remaining” value is recorded as 117.322.

Turning to `Cc1nnc2sc(-c3ccccc3NC(=S)NC(=O)c3cc4ccccc4o3)nn12` [CBK268845], the “% of control remaining” value was 108.982.

For `CC(Cc1nc(C2(Cl)CC2)cs1)n1cc(Cl)cn1` (stereo not shown) [CBK304715], the “% of control remaining” value stood at 43.8524.

With `COc1cc(NC(=O)Cc2cccc3ccccc23)c(C(=O)O)cc1OC` [CBK268206], the “% of control remaining” value came out at 86.1956.

Regarding `CCNC(=O)N1CC2(CCN(Cc3cc(OC)c(OC)c(OC)c3)CC2)c2ccccc21` [CBK126689], the “% of control remaining” value is given as 58.9751.

Take `O=S(=O)(Nc1nnn[nH]1)c1ccc(Br)cc1C(F)(F)F` [CBK062388]: the “% of control remaining” value worked out at 93.2719.

Take `Cc1ccc2c(CC(=O)N(C)CCN3CCCCC3)coc2c1` [CBK282747]: the “% of control remaining” value amounted to 116.032.

Consider `CCN(CC)C(=O)CN1CCC(Oc2cncc(OCC3COc4ccccc4O3)n2)C1` (stereo not shown) [CBK084374], for which the “% of control remaining” value stood at 103.161.

As for `Oc1ccc2c(c1)C(O)CC1(CCN(CC(O)c3ccc(-c4ccccc4)cc3)CC1)O2` (stereo not shown) [CBK286351], the “% of control remaining” value turned out to be 99.7392.

As to `O=S1(=O)CCN(Cc2cnn(-c3ccc(OC(F)(F)F)cc3)n2)CC1` [CBK112883], the “% of control remaining” value is 63.3652.

For the compound `CC(C)c1ccnc(C(C)Sc2nc(N)c(Br)c(Cl)n2)c1` (stereo not shown) [CBK016828], the “% of control remaining” value is reported as 67.1223.

Take `COc1ccc(C)cc1CC(=O)N(C)CCN1CCCCC1` [CBK282750]: the “% of control remaining” value came out at 112.701.

In the case of `CC(C)(C)c1ccc(C(=O)Nc2ccccc2C(=O)Nc2ccc(C(=O)O)cc2)cc1` [CBK268626], the “% of control remaining” value worked out at 108.599.

On to `COC(=O)c1c(NC(=O)c2cc(C)on2)sc(C(=O)Nc2ccc(Cl)cc2)c1C` [CBK268116], for which the “% of control remaining” value was 105.816.

With `Cc1cc(-c2cn3cc(C(=O)N4CCCC4C)nc3c(=O)n2C)c(C)o1` (stereo not shown) [CBK307038], the “% of control remaining” value is 57.9723.

On to `COCCN(Cc1cnn(C)c1)Cc1cc(O)c2cc(C)ccc2n1` [CBK306723], for which the “% of control remaining” value is on record as 88.3015.

On to `CC[C@H]1CN(C(=O)Nc2ccccc2)CC[C@H]1CC(=O)N(C)CC#N` [CBK288777], for which the “% of control remaining” value was determined as 121.67.

With `O=S1(=O)c2cc(/N=C/c3c(O)ccc4ccccc34)ccc2-c2ccc(/N=C/c3c(O)ccc4ccccc34)cc21` [CBK261240], the “% of control remaining” value stood at 104.617.

On to `Cc1ccc(C)c(S(=O)(=O)NCCCn2ccnc2)c1` [CBK262205], for which the “% of control remaining” value is given as 79.7684.

For `Cc1cccc(CSc2nnc(C(C)NC(=O)c3ccccc3F)n2C)c1` (stereo not shown) [CBK269732], the “% of control remaining” value is on record as 95.2884.

Regarding `COc1cc(Nc2cncc(-c3cccc(F)c3)n2)cc(OC)c1OC` [CBK065272], the “% of control remaining” value was 108.247.

As for `COc1ccc(NS(=O)(=O)c2cccs2)c(OC)c1` [CBK043915], the “% of control remaining” value is on record as 99.7826.

On to `O=C(c1cscn1)N1CCCC(n2cnc3cc(F)ccc32)C1` (stereo not shown) [CBK284477], for which the “% of control remaining” value is reported as 114.935.

As for `Cc1cc(C)c2c(N)c(C(=O)O)sc2n1` [CBK131868], the “% of control remaining” value was found to be 94.2509.

On to `CCCC(=O)Nc1c(F)cc(F)cc1OC1CCNCC1` [CBK045892T], for which the “% of control remaining” value was 98.4887.

`CCN1CCN(c2ccc([N+](=O)[O-])cc2S(=O)(=O)N2CCOCC2)CC1` [CBK264410]: the “% of control remaining” value is 114.239.

Regarding `COCC(C)NC(=O)Cn1c(C(F)F)cc2cccnc21` (stereo not shown) [CBK285010], the “% of control remaining” value turned out to be 84.9372.

For `O=C(O)c1cc(-c2ccc(F)cc2)n[nH]1` [CBK267848], the “% of control remaining” value is 113.794.

Turning to `Cc1nc(-c2cccc(OC(F)F)c2)n(C2CCN(C)CC2)n1` [CBK307382], the “% of control remaining” value is recorded as 31.4817.

Consider `O=C(c1cnc2ccccc2c1)N1CCC(F)CC1` [CBK200273], for which the “% of control remaining” value amounted to 108.243.

As to `COc1cc2c(cc1OC)C1c3ccccc3NC(c3ccc(C)cc3)N1CC2` (stereo not shown) [CBK286195], the “% of control remaining” value was 99.372.

Turning to `c1cc(COc2ccc(N3CCNCC3)nn2)co1` [CBK022562], the “% of control remaining” value amounted to 73.0397.

With `Cn1ccc(C(=O)N2CCC[C@H](C(=O)c3cccs3)C2)n1` [CBK282412], the “% of control remaining” value turned out to be 81.2631.

Consider `COc1ncc(-c2cncc(N[C@H](C)c3ccccc3)n2)c(OC)n1` [CBK065267], for which the “% of control remaining” value is 119.404.

With `O=C(Cn1cccc(C(=O)Nc2ccc(F)cc2)c1=O)NC1(c2ccccc2)CCCC1` [CBK286057], the “% of control remaining” value is 120.598.

Regarding `CCCCCC(=O)Nc1ccc(C(=O)CSc2nnc(-c3ccco3)o2)cc1` [CBK295134], the “% of control remaining” value was determined as 94.5161.

Regarding `CC(NC(=O)c1ncoc1-c1ccc2ccccc2c1)c1cccnc1` (stereo not shown) [CBK282441], the “% of control remaining” value turned out to be 115.998.

`COc1cc(-c2nccnc2N2CCCN(C)CC2)cc(OC)c1OC` [CBK037994]: the “% of control remaining” value worked out at 89.2241.

Turning to `O=C(CCn1cccn1)NCC1CCCOC1` (stereo not shown) [CBK281474], the “% of control remaining” value worked out at 94.9767.

As for `Cc1nn(C)c(C)c1CN1CCOC(c2nc(C(C)(C)C)cs2)C1` (stereo not shown) [CBK304170], the “% of control remaining” value worked out at 72.8211.

On to `Cc1c(C(=O)NC(Cc2cccs2)c2nccs2)cnn1C` (stereo not shown) [CBK285053], for which the “% of control remaining” value was 114.953.

Turning to `CCCCNC(=O)c1nnc(C(=O)Nc2cccc(Cl)c2)s1` [CBK294407], the “% of control remaining” value came to 88.3932.

With `C[C@@H](c1ccccc1)n1c(=O)[nH]c2ncc(-c3cccc(/C=C/C(=O)O)c3)nc21` [CBK065040], the “% of control remaining” value was 58.596.

As for `CC(=O)Nc1cccc(-c2cc(Nc3ccc(N4CCN(Cc5ccccc5)CC4)cc3)ncn2)c1` [CBK037709], the “% of control remaining” value was determined as 103.467.

In the case of `CCCCc1ccc(-c2cnc3ncccc3c2N)cc1` [CBK083683], the “% of control remaining” value is 83.2971.

For `O=C(O)CCC(=O)NNC(=O)c1ccc(O)cc1` [CBK261353], the “% of control remaining” value was 92.8288.

Take `OC(COc1cccc(Oc2ccccc2)c1)CN1CCN(c2ccccc2F)CC1` (stereo not shown) [CBK267468]: the “% of control remaining” value is 100.857.

Turning to `Cc1ccc(S(=O)(=O)Nc2ccc(C(=O)O)cc2)cc1` [CBK034060], the “% of control remaining” value was determined as 99.276.

`CC1(C)CC2(CC(C)(C(=O)CSc3nnc(-c4ccccc4Br)[nH]3)OC2=O)C(=O)O1` (stereo not shown) [CBK266713]: the “% of control remaining” value is 111.674.

Consider `CNC(=S)NCc1nc(-c2ccc(C)cc2)no1` [CBK288418], for which the “% of control remaining” value was 94.5063.

Take `CCNc1nc2c(c(=O)[nH]c(=O)n2C)n1CCCc1ccccc1` [CBK269243]: the “% of control remaining” value was found to be 96.9833.

Take `COc1ccc(CCc2nc(C)cc(CN(C)C)c2O)cc1` [CBK278313C]: the “% of control remaining” value is recorded as 97.4889.

On to `CC(C)CC1(C(CCN2C(=O)c3ccccc3C2=O)C(=O)NO)CCN(Cc2cccc(F)c2)C1=O` (stereo not shown) [CBK013032], for which the “% of control remaining” value was 87.8.

Turning to `O=C(Nc1cccc2ccccc12)C(c1ccccc1)N1CCOCC1` (stereo not shown) [CBK269388], the “% of control remaining” value amounted to 88.6856.

As for `O=C(O)CCCc1[nH]nc(O)c1Cc1c(Cl)cccc1Cl` [CBK081137], the “% of control remaining” value worked out at 65.0459.

As to `O=C(O)CCNS(=O)(=O)c1ccc(Br)cc1` [CBK261941], the “% of control remaining” value was found to be 71.5359.

In the case of `OCc1cccc(-c2nccnc2NCC(O)COc2ccccc2)c1` (stereo not shown) [CBK036842], the “% of control remaining” value is 139.329.

Consider `CN1CCN(c2cc(N3CCN(C)CC3)c([N+](=O)[O-])cc2C2Nc3ccc4ccccc4c3C3=C2C(=O)CC(C)(C)C3)CC1` (stereo not shown) [CBK262381], for which the “% of control remaining” value is given as 71.5134.

Consider `COc1ccc(C(C)C)cc1-c1cnc(N)c(NCCCN2CCOCC2)n1` [CBK063625], for which the “% of control remaining” value is 108.51.

On to `CC(=O)Nc1cccc2c1NSN2` [CBK027082], for which the “% of control remaining” value is recorded as 77.7464.

With `CCN(CC)CCN1C(=O)C(O)=C(C(=O)c2ccc(Cl)cc2)C1c1cccc(Br)c1` (stereo not shown) [CBK265165], the “% of control remaining” value came out at 87.3505.

Take `O=C(O)CCC(=O)Nc1ccc(-c2ccc([N+](=O)[O-])cc2)cc1` [CBK261637]: the “% of control remaining” value is on record as 73.876.

Take `Cc1ccccc1Cn1nc(C)c(NC(=O)c2nc3n(n2)C(C(F)F)CC(C)N3)c1C` (stereo not shown) [CBK267633]: the “% of control remaining” value worked out at 96.1743.

Regarding `CC1CN(C(=O)OC(C)(C)C)CCN1c1nc2ccccc2nc1O` (stereo not shown) [CBK003877C], the “% of control remaining” value worked out at 71.9929.

Consider `CSc1nccc(OCCOc2nccnc2N2CCNCC2)n1` [CBK000718G], for which the “% of control remaining” value worked out at 113.085.

With `c1ccc(OCCOc2nccnc2-c2cc3ccccc3s2)cc1` [CBK106787], the “% of control remaining” value worked out at 91.5996.

Consider `O=C(NCc1cccc2ccccc12)N1CCN(c2ccccc2)CC1` [CBK155175], for which the “% of control remaining” value is 94.1515.

In the case of `COCc1ccc(C(=O)N2CCC(c3cc4ncccc4[nH]3)CC2)o1` [CBK283373], the “% of control remaining” value was found to be 87.8686.
